Experimental data taken from publication PMC12040169 (PLOS Biology, 2025).
Some of the results follow.

Test system: T1, C. trachomatis L2/434/Bu expressing GFP (CTL2-GFP)
T1 construct: L2/434/Bu GFP intracellular growth in HeLa cells
Set-up: species or system HeLa; C. trachomatis total inclusion area by high-content imaging, normalised to DMSO
Settings: total inclusion area; 28.5 h, 10 µM; inhibitor
Procedure, shortened: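 Following bulk GFP and resorufin fluorescence reads, infected cells were fixed, Hoechst-stained and imaged on a high-content platform. Inclusion total area and number per well served as growth proxies; nuclei counts indicated host viability. MICs were derived as for the fluorescence assay.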

Row | Structure (SMILES) | % of control remaining
1 | Cc1cc(C23CC4CC(CC(C(=O)O)(C4)C2)C3)c(C)cc1C12CC3CC(CC(C(=O)O)(C3)C1)C2 [CBK261734] | 85.4401
2 | CC(C)Nc1cc(OC2CCOC2)ncn1 (stereo not drawn) [CBK115888] | 102.024
3 | CC(=O)c1ccc(-c2nccnc2NCc2cccnc2)s1 [CBK037050] | 127.346
4 | O=S(=O)(c1cc(Cl)sc1Cl)N1CCN(Cc2ccc3c(c2)OCO3)CC1 [CBK074743] | 84.2948
5 | O=c1[nH]c(=O)n([C@@H]2O[C@H](CO)[C@H](O)C2O)cc1I (stereo partly drawn) [CBK201304] | 125.781
6 | CC[C@H]1CN(C(=O)Nc2cccc(C(F)(F)F)c2)CC[C@H]1CC(=O)O [CBK288776] | 116.304
7 | Brc1cccc(-c2cn3ccnc3c(NC3CCOCC3)n2)c1 [CBK066291] | 63.4395
8 | O=C(COc1ccccc1[N+](=O)[O-])Nc1cnc(-c2cccc(C(F)(F)F)c2)c(-c2ccco2)n1 [CBK036899] | 107.995
9 | Cc1cnc(Cl)c2ncn([C@H]3C[C@@H](O)[C@@H](CO)O3)c12 [CBK201234] | 107.748
10 | O=C1NC(=O)C(CC(=O)N2CCC(Cn3cncn3)(C3CCCCC3)CC2)N1 (stereo not drawn) [CBK136808] | 80.4311
11 | Cc1cc(S(=O)(=O)N2CCN(c3ccc(Cl)cc3)CC2)c(C)cc1Cl [CBK044965] | 77.5341
12 | O=C(c1ccncc1)c1ccc(N2CCN(C3CC(=O)N(Cc4cccs4)C3=O)CC2)cc1 (stereo not drawn) [CBK269074] | 87.3715
13 | Cc1ccccc1CN(C)C(C)C(=O)Nc1ccc(S(N)(=O)=O)cc1 (stereo not drawn) [CBK304589] | 63.2897
14 | COc1ccccc1C/C(N)=N/OC(=O)COc1ccc2ccccc2c1 [CBK263730] | 95.1805
15 | COc1ccccc1OCC(=O)N1CCNC1=O [CBK288201] | 99.6977
16 | N#Cc1cccc(C(=O)NCC2(N3CCOCC3)CCSC2)c1 (stereo not drawn) [CBK306344] | 84.6548
17 | COc1ccccc1-c1nnc(NC(=O)Cc2cccs2)s1 [CBK287361] | 100.008
18 | COCCc1nc(Cc2ccc(OC)cc2)nn1CC1COCCO1 (stereo not drawn) [CBK307521] | 68.6227
19 | O=C(O)CC(NC=C1C(=O)CCCC1=O)C(=O)O (stereo not drawn) [CBK261997] | 106.151
20 | Cc1cc(Cl)ccc1OCC(=O)Nc1nnc[nH]1 [CBK287940] | 91.205
21 | CN(C)CCN(C)Cc1ccccc1O [CBK261875] | 91.3393
22 | CCN1CCN(C(=O)CN(CCc2ccccc2)S(C)(=O)=O)CC1 [CBK266666] | 84.1032
23 | CC1CCN(C(=O)Cn2ncn3c(cc4ccsc43)c2=O)CC1 [CBK284190] | 67.898
24 | CCCC1c2cccn2CCN1S(=O)(=O)c1ccc2[nH]c(=O)[nH]c(=O)c2c1 (stereo not drawn) [CBK286388] | 90.248
25 | O=C1CN(S(=O)(=O)c2ccc(F)cc2Cl)CCN1 [CBK051081] | 40.2995
26 | Cc1cc(C(F)(F)F)c2c(NC/C=C/c3ccco3)n[nH]c2n1 [CBK283651] | 85.2902

Row | Structure (SMILES) | % of control remaining
27 | Cc1cc(NC(=O)Cn2nc(C(F)(F)F)c(Cl)c2C)no1 [CBK018709] | 86.687
28 | CCNc1cncc(-c2ccc(N)cc2)n1 [CBK065658] | 100.371
29 | O=C(C[C@@H]1CCNC[C@@H]1Cc1cc(-c2ccc(F)cc2)on1)Nc1ccccc1 [CBK288801] | 93.2106
30 | Cc1cnc(CNC(=O)c2ccc3nc[nH]c3c2)cn1 [CBK153318] | 107.794
31 | Cc1cc(C(=O)NCc2ccccc2)n[nH]1 [CBK200198] | 119.664
32 | NS(=O)(=O)c1ccc(CCNc2ncnc3c2c(-c2ccccc2)cn3-c2ccc(F)cc2)cc1 [CBK266478] | 74.4933
33 | Cc1ccc(C2(O)CCN(CCNC(=O)C3CCCCC3)CC2)cc1 [CBK283323] | 78.3197
34 | Cc1cc(N2C(=O)NS(=O)(=O)c3cccnc32)ccc1F [CBK288461] | 68.6324
35 | COc1cc(/C=N/NC(=O)c2cccc([N+](=O)[O-])c2)cc(OC)c1O [CBK262172] | 92.9641
36 | c1cncc(COc2ccnc(N3CCCN(Cc4ccc5c(c4)OCO5)CC3)n2)c1 [CBK084112] | 87.0381
37 | COc1ccc(S(=O)(=O)Nc2ccccc2C(=O)Nc2ccc(F)cc2)cc1OC [CBK045404] | 91.5814
38 | CN1CCc2c(sc3ncn4nc(-c5ccncc5)nc4c23)C1 [CBK288540] | 94.3233
39 | COCCNCCOc1c(Cl)cc(C)cc1Br [CBK265087G] | 98.2357
40 | Nc1cccc(Sc2ccc(C(F)(F)F)cn2)c1 [CBK089606] | 79.7387
41 | O=S(=O)(CCSc1nc2ccccc2s1)c1nc2ccccc2s1 [CBK026908] | 62.2639
42 | COc1ccc([C@@]23CC[C@@H](NC(=O)Nc4ccc(Cl)cc4[N+](=O)[O-])C[C@@H]2N(C)CC3)cc1OC [CBK036474T] | 86.9475
43 | O=C(C[C@@H]1O[C@H](CNCc2cccc(Cl)c2)[C@@H](O)[C@H]1O)N1CCCC1 [CBK288914] | 79.8631
44 | Cc1ccc(C(=O)N2CCC(c3n[nH]c4ncccc34)CC2)s1 [CBK284911] | 104.42
45 | Cc1nc(-c2ccccc2)sc1CNC(=O)CCc1c[nH]c2ccccc12 [CBK092373] | 77.6103
46 | Cc1ccccc1OCc1nnc(SCC(=O)NC2CCCCC2)n1C [CBK265817] | 68.9833
47 | O=C(Nc1nccs1)c1ccc2[nH]ccc2c1 [CBK161731] | 101.945
48 | CCc1nc2c(OCCC3CCCCC3)cccn2c1N(C)C(=O)CC(C)C [CBK147671] | 85.4028
49 | NCCNc1ccc(C(=O)Nc2cccc(Cl)c2)cc1[N+](=O)[O-] [CBK263953] | 77.7468
50 | COc1ccc(S(=O)(=O)N2CCC(C(=O)O)(c3ccccc3)CC2)cc1 [CBK267572] | 90.4448
51 | CCN1C(=O)C2(CC(=O)N(Cc3ccc(OC)c(OC)c3)C2=O)c2cc(C)ccc21 (stereo not drawn) [CBK075172] | 95.731
